Reference: PMC4336329 (PLoS ONE, 2015)
About 14,000 (4.5%) of roughly 310,000 compounds showed an effect of 50% or more. The effect is printed as a negative number. This is one part of the list.
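Note: peak tail current of the secondary pulse compared with the same well before compound.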

What follows are compounds tested against human ether-à-go-go-related gene (hERG) potassium channel (human, UniProt Q12809) (assay: primary screen, population patch clamp on CHO cells stably expressing hERG).
Sequence of human ether-à-go-go-related gene (hERG) potassium channel (Q12809 whole entry, looked up): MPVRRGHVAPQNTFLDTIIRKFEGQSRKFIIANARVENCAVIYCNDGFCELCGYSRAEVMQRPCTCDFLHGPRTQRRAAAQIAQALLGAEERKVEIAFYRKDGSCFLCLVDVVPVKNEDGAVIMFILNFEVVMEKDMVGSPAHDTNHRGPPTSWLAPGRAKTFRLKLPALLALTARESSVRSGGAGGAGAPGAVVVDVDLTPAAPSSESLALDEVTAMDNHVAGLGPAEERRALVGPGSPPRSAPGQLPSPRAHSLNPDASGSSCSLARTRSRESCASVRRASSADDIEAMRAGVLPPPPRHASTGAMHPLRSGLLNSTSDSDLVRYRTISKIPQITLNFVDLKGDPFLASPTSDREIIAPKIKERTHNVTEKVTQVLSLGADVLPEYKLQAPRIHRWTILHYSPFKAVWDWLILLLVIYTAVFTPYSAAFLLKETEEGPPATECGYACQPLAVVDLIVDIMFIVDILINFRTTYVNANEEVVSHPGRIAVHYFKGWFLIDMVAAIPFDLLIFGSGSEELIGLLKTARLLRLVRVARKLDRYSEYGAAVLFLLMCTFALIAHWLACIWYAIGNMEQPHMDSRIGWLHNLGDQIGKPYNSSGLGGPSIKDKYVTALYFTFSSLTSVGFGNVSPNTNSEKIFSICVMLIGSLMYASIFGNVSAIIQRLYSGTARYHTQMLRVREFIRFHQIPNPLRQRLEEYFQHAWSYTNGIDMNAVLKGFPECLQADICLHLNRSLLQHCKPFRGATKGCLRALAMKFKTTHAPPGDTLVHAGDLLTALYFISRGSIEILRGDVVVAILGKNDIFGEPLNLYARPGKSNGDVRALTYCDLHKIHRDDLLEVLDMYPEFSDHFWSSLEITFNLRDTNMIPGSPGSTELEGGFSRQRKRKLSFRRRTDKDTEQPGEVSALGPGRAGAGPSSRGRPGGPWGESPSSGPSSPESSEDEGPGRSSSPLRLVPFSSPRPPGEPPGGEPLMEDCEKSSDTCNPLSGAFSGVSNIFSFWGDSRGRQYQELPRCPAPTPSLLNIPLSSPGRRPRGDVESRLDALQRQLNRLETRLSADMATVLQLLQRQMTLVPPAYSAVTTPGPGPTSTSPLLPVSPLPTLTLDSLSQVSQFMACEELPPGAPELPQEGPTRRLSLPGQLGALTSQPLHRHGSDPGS
For `COc1ccc(CCNC(=O)COC(=O)/C=C/c2cc(OC)c(OC)c(OC)c2)cc1OC`, the “hERG current change (%, negative = inhibition) at 10uM” value was 12.8%. For `CCn1cc(/C=N\NC(=O)Cc2ccc(Cl)cc2)cn1`, the “hERG current change (%, negative = inhibition) at 10uM” value was -12%. For `CC(C)CC(=O)Nc1ccnn1C1CCN(C(=O)c2ccccc2F)CC1`, the “hERG current change (%, negative = inhibition) at 10uM” value was 19%. With `O=C(NC1CCCCC1)[C@H](O)[C@@H](O)C(=O)NC1CCCCC1` the “hERG current change (%, negative = inhibition) at 10uM” value was 16.8%. For `COCCCn1c(=O)cc(C)[nH]c1=S`, the “hERG current change (%, negative = inhibition) at 10uM” value was 15.6%. In the case of `O=C(OC1CCOC1=O)c1cc(-c2ccc(Cl)cc2)nc2ccccc12` (centres unmarked), the “hERG current change (%, negative = inhibition) at 10uM” value is reported as 10.2%. In the case of `CC(=O)c1ccc(N2CCN(S(=O)(=O)c3csc(C(N)=O)c3)CC2)cc1`, the “hERG current change (%, negative = inhibition) at 10uM” value is reported as -26.1%. For `Cc1cccc(NCc2nc3ccccc3n2Cc2ccccc2)c1`, the “hERG current change (%, negative = inhibition) at 10uM” value was -13.1%. `COc1n[nH]c(C(=O)NCc2ccccc2)c1[N+](=O)[O-]` was tested, and the “hERG current change (%, negative = inhibition) at 10uM” value was 21.1%. With `CC(C)(C)Nc1nc(C(N)=O)nc(N2CCOCC2)n1` the “hERG current change (%, negative = inhibition) at 10uM” value was -0.829%. With `CCOC(=O)c1cnc(Nc2ccccc2)nc1C(F)(F)F` the “hERG current change (%, negative = inhibition) at 10uM” value was -2.36%. `Cc1ccc(/C=N/n2c(COc3ccccc3)n[nH]c2=S)o1` was tested, and the “hERG current change (%, negative = inhibition) at 10uM” value was 4.76%. In the case of `CC(c1ccccc1)N1C(=O)c2ccc(C(=O)Nc3ccccc3C(=O)O)cc2C1=O` (centres unmarked), the “hERG current change (%, negative = inhibition) at 10uM” value is reported as 18.7%. In the case of `CSc1ccc(S(=O)(=O)NC2CCCCC2)cc1`, the “hERG current change (%, negative = inhibition) at 10uM” value is reported as -25.8%. With `COc1cc(C(=O)NC2CC(C)(C)CC(C)(C)C2)ccc1OC1CCN(C(C)=O)CC1` the “hERG current change (%, negative = inhibition) at 10uM” value was 6.2%. With `CCN1CCN(Cc2ccc(C(=O)Nc3ccc(C)c(NCc4cnc(NC(=O)OC)cn4)c3)cc2C(F)(F)F)CC1` the “hERG current change (%, negative = inhibition) at 10uM” value was 6.69%. `O=C(Nc1ccc(NC(=S)NC(=O)c2cccs2)cc1)c1ccco1` was tested, and the “hERG current change (%, negative = inhibition) at 10uM” value was 56.8%. With `COc1ccc(-n2c(=O)c3ccccc3n(CC(=O)c3ccccc3)c2=O)cc1OC` the “hERG current change (%, negative = inhibition) at 10uM” value was -1.32%. For `Cc1cc(C(=O)Nc2c(C)nn(Cc3ccc(Cl)cc3)c2C)no1`, the “hERG current change (%, negative = inhibition) at 10uM” value was -15.4%. With `O=C(O)CSCC(=O)Nc1ccccc1SCCS(=O)(=O)c1ccc(Cl)cc1` the “hERG current change (%, negative = inhibition) at 10uM” value was 14.4%. In the case of `O=C(CSc1nnc(-c2ccco2)o1)NC1CCCCC1`, the “hERG current change (%, negative = inhibition) at 10uM” value is reported as 14.6%. With `O=C(CSc1nnc(NC(=O)c2ccccc2F)s1)NC1CCCC1` the “hERG current change (%, negative = inhibition) at 10uM” value was 14%. In the case of `COc1ccccc1NCC(=O)N/N=C/c1c(O)ccc2ccccc12`, the “hERG current change (%, negative = inhibition) at 10uM” value is reported as -16.7%. For `Cc1ccc(NS(=O)(=O)c2ccc3c(c2)NC(=O)CCS3)c(C)c1`, the “hERG current change (%, negative = inhibition) at 10uM” value was 6.93%. With `COc1ccc(S(=O)(=O)n2nc(OC(=O)C3CCCCC3)cc2N)cc1` the “hERG current change (%, negative = inhibition) at 10uM” value was 5.38%. `O=C(CCCN1C(=O)C(c2ccccc2)Oc2cccnc21)Nc1ccccc1Cl` (centres unmarked) was tested, and the “hERG current change (%, negative = inhibition) at 10uM” value was 20.2%. For `CSCC[C@H](NC(=O)OC(C)(C)C)C(=O)N1CCC(C(=O)N[C@@H](C)C(=O)NCc2ccc(F)cc2)CC1`, the “hERG current change (%, negative = inhibition) at 10uM” value was 1.15%. For `COc1ccc(NC(=O)CCNC(=O)Cn2cnc3sc4c(c3c2=O)CCCC4)c(OC)c1`, the “hERG current change (%, negative = inhibition) at 10uM” value was 2.88%. `COc1ccc(NP(=O)(Oc2ccccc2OC)Oc2ccccc2OC)cc1` was tested, and the “hERG current change (%, negative = inhibition) at 10uM” value was -0.0316%. With `O=C(CN1CCN(c2ccccn2)CC1)Nc1ccccc1F` the “hERG current change (%, negative = inhibition) at 10uM” value was 1.45%. With `C=CCNC(=S)N/N=C/c1ccc(OCc2ccccc2)cc1` the “hERG current change (%, negative = inhibition) at 10uM” value was -1.67%. With `Cc1ccccc1CNC(=O)C1CCC(=O)N(CC2CCCCC2)C1` (centres unmarked) the “hERG current change (%, negative = inhibition) at 10uM” value was -11.8%. With `Cc1cccc(NC(=O)c2cccc(OC(=S)N3CCOCC3)c2)c1` the “hERG current change (%, negative = inhibition) at 10uM” value was -8.01%. In the case of `Cc1nn(-c2ccccc2)c(Cl)c1C(=O)NCCN(C)C`, the “hERG current change (%, negative = inhibition) at 10uM” value is reported as 15.9%. For `Cc1ccc(C2(C)NC(=O)N(CC(=O)c3ccc(Cl)s3)C2=O)cc1` (centres unmarked), the “hERG current change (%, negative = inhibition) at 10uM” value was -2.75%. For `Cc1cccc(N2CCN(C(=O)/C=C/c3ccco3)CC2)c1C`, the “hERG current change (%, negative = inhibition) at 10uM” value was -25.1%. `COc1ccc(NCC(=O)N/N=C2\CCc3ccccc32)cc1` was tested, and the “hERG current change (%, negative = inhibition) at 10uM” value was 1.87%. In the case of `O=S(=O)(Cc1ccccc1)N1CCCc2ccccc21`, the “hERG current change (%, negative = inhibition) at 10uM” value is reported as 0.566%. In the case of `Cc1ccccc1C(=O)NC(=S)Nc1ccc(S(=O)(=O)N(C)c2ccccc2)cc1`, the “hERG current change (%, negative = inhibition) at 10uM” value is reported as 0.146%. With `CC1CCCC(C)N1C(=O)CSc1nc(N)c(-c2ccccc2)c(=O)[nH]1` (centres unmarked) the “hERG current change (%, negative = inhibition) at 10uM” value was -3.45%. In the case of `Nc1cc(N2CCCCCC2)c2nonc2c1[N+](=O)[O-]`, the “hERG current change (%, negative = inhibition) at 10uM” value is reported as 18.5%. `O=C(O)CCCN1C(=O)C2C3CC(C2C1=O)C1C(c2ccccc2)c2sc(=O)n(-c4ccccc4)c2SC31` (centres unmarked) was tested, and the “hERG current change (%, negative = inhibition) at 10uM” value was 12%. In the case of `CC1CCCCC1NC(=O)COC(=O)CCC(=O)c1cccs1` (centres unmarked), the “hERG current change (%, negative = inhibition) at 10uM” value is reported as 17.3%. With `CCCN(CC1CC1)C(=S)Nc1ccc(C(C)=O)cc1` the “hERG current change (%, negative = inhibition) at 10uM” value was 0.105%.
